# Measurements from the supplement of paper PMC5499739.
# Whole data set: some 16,000 sequences, median “Z-score” near -0.37, cut for the highest 2% near 3.1. The list shows a part of the results.
# System: RBM10 RRM1-ZnF-RRM2 (GST-tagged construct)
# Experiment: RNAcompete 7-mer binding Z-score; higher = stronger binding preference
# Protocol: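 RNAcompete: 20 pmol GST-tagged RBM10 RNA-binding constructs were incubated with a designed RNA pool of about 241,000 sequences up to 41 nt (1.5 nmol) on glutathione beads for 30 min at 4 °C and washed. Bound RNAs were identified by microarray hybridisation. Each RNA 7-mer is scored by a one-sided Z-score of its enrichment, computed over probes that contain the 7-mer within longer pool sequences.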
row,Sequence,RNAcompete 7-mer binding Z-score
1,GAUCACA,-0.326
2,CAUUACC,-0.668
3,UCAGUGC,-0.18
4,GUAUCAA,0.184
5,GGACUUA,0.232
6,GCACAGU,-0.118
7,UUAGGCA,0.592
8,UUGACCU,-0.839
9,GUGUCCG,-0.333
10,CUACGUG,-0.468
11,UACAAAG,-0.0379
12,AAACAGC,-0.402
13,GGAGCUG,1.5
14,UUAUUUA,-0.562
15,CUAGGAA,0.661
16,UUCUCUC,-0.777
17,UGAGUGC,0.217
18,GCUGCGG,1.05
19,GAAACUC,-0.697
20,CAACAAG,0.0641
21,CUCGCUA,-0.726
22,GGAUCAG,1.9
23,UUCAACG,-0.555
24,GUCCCGG,0.199
25,AUGUCAA,-0.307

row,Sequence,RNAcompete 7-mer binding Z-score
1,AUGGUCC,0.17
2,UGAGCUC,-0.562
3,AUUAUCC,-0.708
4,ACACUUC,-0.963
5,CAAUGCA,-0.362
6,GUAUAGA,0.927
7,CAGAUUC,-0.522
8,AUAAGGG,3.85
9,UUUGACC,-0.839
10,ACAAUCG,-0.173
11,CGAUGAU,-0.0343
12,UGGCGUA,0.778
13,CUAUCGG,-0.486
14,CAUCCGA,-0.497
15,CGAAUGU,-0.333
16,UAUGAAC,-0.195
17,GAGUCUG,-0.067
18,GUUCUGC,-0.748
19,UACCGUC,-0.664
20,AAUCUAG,-0.326
21,GUUCCUA,-0.734
22,CUGUCCA,-0.734
23,UGGCGGA,2.2
24,GGUUACA,1.46
25,ACAUGUU,-0.442

row,Sequence,RNAcompete 7-mer binding Z-score
1,AGUUUAC,-0.57
2,CAUGUAG,-0.0488
3,AUCAUCG,-0.588
4,ACCCUCA,-0.846
5,CAUCAAU,-0.602
6,UUCAACC,-0.737
7,AGCGGGU,3.01
8,GGUUAUC,0.785
9,AGCAAUG,0.301
10,UCGAGAA,0.0859
11,AUCAGGG,2.09
12,AAUAGCU,-0.417
13,AUGUCUG,-0.431
14,CUAGUUU,-0.803
15,UGCCAAG,-0.264
16,GCUCCGG,-0.235
17,UCACUUA,-0.741
18,CUCAAUG,-0.293
19,AGCCUCA,-0.872
20,CCCUGGG,0.221
21,CACUUCG,-0.792
22,UCCGCCC,-0.803
23,ACAGCGC,-0.22
24,GAGCAAC,0.0204
25,ACAGUCA,-0.22

row,Sequence,RNAcompete 7-mer binding Z-score
1,UUAACGA,-0.351
2,UUUUACA,-0.632
3,UUAAUAU,-0.475
4,UCAGGUG,1.27
5,AGAGGCC,-0.628
6,UAGCACC,-0.573
7,AACUUUA,-0.679
8,ACAAUGG,2.21
9,CGCUGGU,0.0058
10,CAUUCAG,-0.526
11,UUUGCAC,-0.679
12,CUGAUGG,0.29
13,GAAAUCA,-0.151
14,CCGUUUG,-0.916
15,UUUCCUA,-0.806
16,CGAGCAA,-0.0452
17,CCAGGAG,0.723
18,CUGAGGU,0.508
19,GUCGUGC,-0.133
20,UUGCCUG,-0.861
21,CCGAAGU,-0.417
22,UAGUUCG,-0.296
23,CCGGUGG,1.15
24,UGAAACU,-0.464
25,UUAAGAU,-0.34
